The values that follow come from patent US20240360218A1 (KYMAB, published 2024).

The assay deals with T1, TIGIT, recombinant analyte in SPR (Example 10) (UniProt Q495A1 22-141, limits assumed).
T1 construct: also called recombinant TIGIT
T1 sequence (looked up): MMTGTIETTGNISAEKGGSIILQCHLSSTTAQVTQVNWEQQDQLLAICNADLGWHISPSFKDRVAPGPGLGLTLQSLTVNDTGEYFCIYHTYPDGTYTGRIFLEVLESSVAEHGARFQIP
Kind of assay: SPR (ProteOn), anti-human Fc capture, 25 C.

B1: 1D05-IgG1 disabled (LAGA) with 1D05 kappa light chain (antibody)
heavy: EVQLVESGGGLVQPGRSLRLSCAASGFTFDDYAMHWVRQVPGKGLEWVSGISWIRTGIGYADSVKGRFTIFRDNAKNSLYLQMNSLRAEDTALYYCAKDMKGSGTYGGWFDTWGQGTLVTVSS[human IgG1 constant region with L235A G237A (EU numbers) omitted]
light: [about 100 residues omitted][about 100 residues omitted]
notes: also called Antibody 1; In-house anti-PD-L1
Take B1: the binding result is given as “no binding (tested: 512 nM (top analyte concentration))”.
